# Experimental data published in paper PMC4336329 (PLoS ONE, 2015).
# Screen size: about 310,000 compounds; about 14,000 (4.5%) showed an effect of 50% or more. Effects have a minus sign here. Some of the results follow.
# Biological target: human ether-à-go-go-related gene (hERG) potassium channel (human, UniProt Q12809)
# Assay: primary screen, population patch clamp on CHO cells stably expressing hERG
# 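Further: peak tail current of the secondary pulse compared with the same well before compound.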
# Chain of human ether-à-go-go-related gene (hERG) potassium channel (Q12809 whole entry, looked up): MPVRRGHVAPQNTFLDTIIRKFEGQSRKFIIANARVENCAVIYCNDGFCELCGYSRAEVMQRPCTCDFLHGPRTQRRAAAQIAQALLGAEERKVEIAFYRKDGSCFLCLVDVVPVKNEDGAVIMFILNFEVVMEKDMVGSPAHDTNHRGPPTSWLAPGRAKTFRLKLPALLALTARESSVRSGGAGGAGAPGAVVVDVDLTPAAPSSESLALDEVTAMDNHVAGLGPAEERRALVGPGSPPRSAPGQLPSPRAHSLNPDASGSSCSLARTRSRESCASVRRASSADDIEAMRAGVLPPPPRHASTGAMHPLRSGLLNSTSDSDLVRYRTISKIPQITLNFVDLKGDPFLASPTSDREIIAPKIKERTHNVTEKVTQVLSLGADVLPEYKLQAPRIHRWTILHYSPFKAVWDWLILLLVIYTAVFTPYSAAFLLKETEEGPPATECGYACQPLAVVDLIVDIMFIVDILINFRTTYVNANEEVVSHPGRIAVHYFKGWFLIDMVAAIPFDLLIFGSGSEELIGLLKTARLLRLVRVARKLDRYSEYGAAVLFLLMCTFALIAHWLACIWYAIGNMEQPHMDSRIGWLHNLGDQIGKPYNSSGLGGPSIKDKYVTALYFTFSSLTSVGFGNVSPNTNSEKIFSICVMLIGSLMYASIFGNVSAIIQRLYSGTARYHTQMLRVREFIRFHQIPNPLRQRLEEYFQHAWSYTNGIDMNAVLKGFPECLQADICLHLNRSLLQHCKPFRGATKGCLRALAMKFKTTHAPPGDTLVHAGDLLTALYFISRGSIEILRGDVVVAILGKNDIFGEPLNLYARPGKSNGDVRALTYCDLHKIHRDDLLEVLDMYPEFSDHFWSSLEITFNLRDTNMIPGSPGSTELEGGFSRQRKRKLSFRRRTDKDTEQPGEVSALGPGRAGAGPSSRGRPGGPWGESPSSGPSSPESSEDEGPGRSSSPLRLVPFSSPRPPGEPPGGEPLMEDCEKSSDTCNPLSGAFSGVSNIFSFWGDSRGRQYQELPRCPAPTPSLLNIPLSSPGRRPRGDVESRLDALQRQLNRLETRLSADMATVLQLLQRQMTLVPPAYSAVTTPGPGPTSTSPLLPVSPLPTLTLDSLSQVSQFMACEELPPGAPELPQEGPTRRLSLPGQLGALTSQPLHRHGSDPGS
row,SMILES,"hERG current change (%, negative = inhibition) at 10uM"
1,O=C(Nc1ccccc1)C1=C[C@@H](C2CCCCC2)C[C@@H](OCCCCO)O1,-5.2%
2,Cc1cc(C)cc(NS(=O)(=O)c2cc(Br)cnc2N)c1,12.7%
3,COc1cccc(CNC(=O)CCS(=O)(=O)c2ccc3c(c2)NC(=O)C(C)S3)c1 (stereo not drawn),-0.951%
4,COc1ccc(COc2ccccc2C(=O)Nc2ccccn2)cc1[N+](=O)[O-],0.837%
5,Cc1ccc2c(c1)C(c1ccccc1)CC(=O)O2 (stereo not drawn),-5.2%
6,NS(=O)(=O)c1cc2c(cc1Cl)NC(Cc1ccccc1)NS2(=O)=O (stereo not drawn),13.8%
7,CCOc1ccc(CN2CCN(Cc3ccc4cc(F)ccc4n3)CC2CCO)cc1 (stereo not drawn),-75.7%
8,NC(=O)c1snnc1-c1ccccc1,13.9%
9,CC(Sc1nnc(Cc2ccccc2)o1)C(=O)Nc1ccccc1[N+](=O)[O-] (stereo not drawn),6.68%
10,Cc1ccc(S(=O)(=O)N2CCCCC2)cc1C(=O)N(C)CC(=O)Nc1cccc(F)c1,-49.6%
11,COC(=O)C(=O)Nc1nnc(COc2ccccc2)s1,4.14%
12,CCC(=O)c1cn(/C(=C\C(=O)OC(C)(C)C)CCC(OC)OC)cc1CC,-15.1%
13,CC(C)CSc1nc2c(c(=O)[nH]c(=O)n2C)n1CCc1ccccc1,10.4%
14,COc1ccccc1-n1c(CNC(=O)COc2ccccc2)n[nH]c1=S,13.3%
15,Cc1cccc(C)c1-n1nnnc1-c1cnccc1C(F)(F)F,0.675%
16,CCn1cc(C(=O)N[C@H](C(=O)NCCCO)C(C)C)c(=O)c2cc3c(cc21)OCO3,19.7%
17,O=C(NCCC1CCCCN1S(=O)(=O)c1ccccc1)C(=O)Nc1ccccc1 (stereo not drawn),-12.3%
18,CN(C)c1ccc(N=Nc2cccc3ccoc23)cc1,16.4%
19,COC(=O)[C@@H](NC(=O)c1ccccc1)[C@@H](C)O,3.99%
20,Cc1cc(C)cc(NC(=S)/C(=C(\[O-])c2ccc(Cl)cc2Cl)[n+]2ccc(C(C)(C)C)cc2)c1,6.04%
21,Br.O=C1SC(SC(=Nc2ccccc2)Nc2ccccc2)C(=O)N1c1ccccc1 (stereo not drawn),11.1%
22,CCCn1c(O)c(N=NC(=O)c2cccnc2)c2cc(Br)ccc21,-3.7%
23,COc1cccc(CNC(=O)Cc2ccc(Br)cc2)c1,5.59%
24,O=C(C1CCOCC1)N1CCCC(N2CCN(c3cccc(Cl)c3)CC2)C1 (stereo not drawn),-20.4%
